The values below come from PubChem BioAssay (NCI).

Several values for one entry are separate records, joined by “and”; a condition that tells them apart may be missing. Equal values may be shown once.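 1) Cells in 96-well plates. 2) Compound, 48 h, 5 concentrations. 3) Linear interpolation between surrounding doses. 4) Unreached endpoint = highest concentration. GI50 marks 50% less growth. TGI: total growth inhibition.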

In the experiment the test system is NCI-H322M lung. Nature of the experiment: NCI-60 cell line screen, 48 h.
In turn, `CCC(=O)C(c1ccccc1)c1ccccn1` (configuration not stated) gave a TGI of more than 100 µM.

As for `O=[Se]([O-])c1ccccc1.O=[Se]([O-])c1ccccc1.[OH3+].[OH3+].[Pt+2]`, the GI50 is 3.49 µM and the TGI came to 22.8 µM.

In the case of `CCOC(=O)C1=C(C)N(c2ccccc2)C2=C(C(=O)N(c3ccccc3)C2c2ccccc2)C1c1ccccc1` (configuration not stated), the TGI is more than 100 µM.

As for `CCCCN(CC)c1nc(C)nc2c1c(C)c(C)n2-c1c(C)cc(C)cc1C`, the TGI was 34.1 µM.

As for `O=C(Nc1ccc(I)cc1C(=O)NCCO)c1cccs1`, the TGI is more than 100 µM.

Take `CC(=O)c1ccc(Nc2cc(-c3ccccc3)nc3c(O)cccc23)cc1`: the GI50 was 22.9 µM and the TGI worked out at 96 µM.

Consider `CC[C@@H]1CC[C@@H]2[C@H](CC[C@]3(C)[C@@H](O)CC[C@@H]23)[C@H]1C(=O)O`, for which the TGI was more than 100 µM.

`CCOC(=O)c1cc(C2(O)CCN(Cc3ccccc3)C2=O)c(-c2cc(C)no2)[nH]1` (configuration not stated) returned a TGI of more than 100 µM.

Consider `c1ccc(C[P+]2(c3ccccc3)c3ccccc3-c3ccccc32)cc1`, for which the TGI is more than 100 µM.

The molecule `c1sc(NC2=NCCO2)c2c1CCCC2` registered a TGI of more than 100 µM.

For `Oc1ccccc1/C=N/Nc1ccc2ccccc2n1`, the GI50 was 4.78 µM and the TGI is more than 100 µM.

`CCCCCCCCCC[C@@H](O)[C@H]1CC[C@H]([C@H]2CC[C@H]([C@H](O)CCCCCCCCCC[C@@H]3CC(CC(C)=O)C(=O)O3)O2)O1` (some centres not stated) registered a TGI of more than 50 µM.

As for `COc1cc2c3c(cccc3c1)C(=O)N(CCN1CCCC1)C2=O`, the GI50 is 2.68 µM and the TGI came to 7.46 µM.

`CCOc1ccc(N/C(=C(/C(Cl)=C(/Cl)NCCN)[N+](=O)[O-])n2nnc3ccccc32)cc1` returned a TGI of more than 100 µM.

Take `COc1ccc(/C=C/C=C(/C#N)C(N)=S)cc1`: the GI50 was 48.4 µM and the TGI is more than 100 µM.

Consider `Cc1cn(C2C=CC(COP(=O)(OCC3=CC(=O)c4ccccc4C3=O)N(C)CCCCCl)O2)c(=O)[nH]c1=O` (configuration not stated), for which the TGI is 21.1 µM.

In turn, `COc1ccc(-c2c(C#N)c(N)n(C3OC(CO)C(O)C(O)C3O)c(=S)c2C#N)cc1` (configuration not stated) showed a TGI of more than 100 µM.

With `Clc1nc(Cl)nc(NC23CC4CC(CC(C4)C2)C3)n1`, the TGI amounted to 50.3 µM.

Consider `CNC(=O)c1ccccc1CC1(O)c2ccccc2Oc2ccccc21`, for which the GI50 is 34.6 µM and the TGI is more than 100 µM.

On to `CCN1CCN(c2nc(NCCCNc3ccnc4cc(Cl)ccc34)c3ccccc3n2)CC1`, for which the GI50 was 2.15 µM and the TGI was found to be 7.89 µM.

The molecule `CC12CC(c3ccccc3O1)C(C(=O)Nc1ccc(F)cc1)C(=O)N2` (configuration not stated) had a TGI of more than 100 µM.

The molecule `CC(=O)OCC1OC(N2C(=O)/C(=C\c3ccc(Cl)cc3)C(N)=Nc3ccccc32)C(OC(C)=O)C(OC(C)=O)C1OC(C)=O` (configuration not stated) registered a TGI of more than 100 µM.

In the case of `C[C@@H]1CC[C@@H]2[C@@H]1[C@H](OC(=O)/C=C/c1ccccc1)[C@]1(c3ccccc3)C[C@@H](OC(=O)CO)[C@@]2(C)O1`, the GI50 is 13.4 µM and the TGI stood at 31.5 µM.

The molecule `COc1cc(COC(=O)N[C@H](C(=O)O)C(C)(C)C)c([N+](=O)[O-])cc1OC` showed a TGI of more than 100 µM.

Molecule `O=C1CC2C=CC(O)C(C1)C2` (configuration not stated) registered a TGI of more than 100 µM.

`O=C1CC(c2ccco2)C2(C(=O)NC(=O)NC2=O)C(c2ccco2)C1` (configuration not stated) returned a TGI of more than 75 µM.

`c1cc(-c2cnc(-c3ccc4c(c3)CCCO4)o2)ccn1` returned a TGI of 54.1 µM.

`N/C(CC(=O)Nc1cc(C(F)(F)F)ccc1Cl)=N\O` yielded a TGI of more than 100 µM.

Consider `NC(N)=N/N=C(/c1ccccc1)c1ccc(F)cc1`, for which the GI50 is 0.569 µM and the TGI is 22 µM.

For `Oc1ccccc1C(c1cc2c(cc1O)OCO2)N1CCOCC1` (configuration not stated), the TGI was more than 100 µM.

Molecule `C=CC(=O)c1ccc2c(c1)OCCOCCOCCOCCOCCO2` had a TGI of more than 100 µM.

`Nc1nc(Cl)cc(NCC2(CO)CC(CCc3ccccc3)C2)n1` (configuration not stated) came in with a TGI of more than 100 µM.

In turn, `CO[C@@H](C(=O)OC1C=CC2(CC1)C(=O)N(C)c1ccccc12)c1ccccc1` (some centres not stated) showed a TGI of more than 100 µM.

`C=CCSC[C@H](NC(=O)COc1ccccc1)C(=O)NC(C(=O)OCc1ccc([N+](=O)[O-])cc1)=C(C)C` had a TGI of more than 100 µM.

Take `C#Cc1cnc(=O)n(C2CC(O)C(CO)O2)c1` (configuration not stated): the GI50 is more than 100 µM and the TGI was more than 100 µM.

`COC1(C)CC2N(C(=O)c3ccccc3)N=C(c3ccccc3)CC2(C)O1` (configuration not stated) yielded a TGI of more than 100 µM.

For the molecule `N#CC1=C(N)OC2=C(CSc3ccccc32)C1c1ccc(Br)cc1` (configuration not stated), the TGI turned out to be 36.9 µM.

The molecule `COC(=O)C1(Cc2ccccc2)Cc2cc3c(cc2C1=O)CCC3` (configuration not stated) yielded a TGI of 11.7 µM.

As to `COc1cc2c(cc1OCCCCCOc1cc3c(cc1OC)C(=O)N1CCC[C@H]1C(=O)N3)N=C[C@@H]1CCCN1C2=O`, the TGI was found to be 0.884 µM.

In the case of `N#C/C(=C\NC(=S)Nc1ccc(S(=O)(=O)Nc2ccccn2)cc1)C(N)=O`, the TGI was more than 100 µM.

As for `N#Cc1c(NC(=O)c2cccc(C(F)(F)F)c2)sc2c1CCC(=O)C2`, the GI50 was 2.99 µM and the TGI was more than 100 µM.

As for `O=C(NNc1nc2c(F)cccc2n2cccc12)c1cnccn1`, the GI50 is 0.494 µM and the TGI was more than 69.1 µM.

In turn, `CC(=O)OC1=C2CC3(C)OC(=O)CC(C)(C)C3=CC=C2C=C(C(C)C)C1=O` (configuration not stated) gave a TGI of 3.1 µM.

Regarding `COc1cc2c(c3c1C=CCO3)C(=O)c1ccccc1C2=O`, the TGI was more than 100 µM.

`COC1O[C@H]2CCN(C(=O)OCc3ccccc3)[C@H]2[C@H]1OCc1ccccc1` (some centres not stated) had a TGI of more than 100 µM.

Molecule `CC(C)(C)OC(=O)NCCCCC(NC(=O)OCc1ccccc1)C(N)=O` (configuration not stated) yielded a TGI of more than 100 µM.

Molecule `Cc1cc(=O)cc2sc3c(C)cccc3nc1-2` showed a TGI of more than 100 µM.

With `Cc1cc2nc3c4cc(Cl)ccc4n(CCN(C)C)c3nc2cc1C`, the GI50 was 1.55 µM and the TGI worked out at 5.15 µM.

`COc1ccc2c(c1)c1c(n2CCN2CCOCC2)-c2ccccc2CC1` yielded a TGI of more than 100 µM.

With `COc1ccc(Nc2[nH]c(C(C)=O)c(N)c2C(=S)Nc2ccccc2)cc1`, the TGI is more than 100 µM.

For `Cc1ccc(N=Nc2c3c(c(O)c4ccccc24)CCC(C)(C)O3)cc1`, the TGI came out at 31.6 µM.

As for `Cc1ccc2c(C(C[N+](=O)[O-])c3cccs3)c(-c3ccccc3)[nH]c2c1` (configuration not stated), the GI50 is 3.63 µM and the TGI is 9.19 µM.

Molecule `c1cc2nnc1SCCSCCSc1ccc(nn1)SCCSCCS2` yielded a TGI of more than 100 µM.

With `O=c1[nH]cnc2c(C3OC(CO)C(O)C3O)c[nH]c12` (configuration not stated), the TGI is more than 100 µM.

In the case of `COc1cc(-n2cc(-c3ccc(Cl)c(Cl)c3)nc2SCc2ccccc2)cc(OC)c1OC`, the GI50 was more than 100 µM and the TGI is more than 100 µM.

`CCOC(=O)C1=C(C)Nc2ccccc2S1`: the TGI is more than 100 µM.

In the case of `Cc1c(Cl)ccc2c(=O)c3cccc(CC(=O)O)c3oc12`, the TGI is more than 100 µM.

In turn, `CCOC(=O)CC1=Nc2ccccc2SC1` registered a TGI of 5.86 µM.

As to `CC(=O)Nc1cccc(-n2c(=O)n(C3CC3)c(=O)c3c(Nc4ccc(I)cc4F)n(C)c(=O)c(C)c32)c1`, the GI50 is < 0.0119 µM and 0.0507 µM; the TGI is more than 47.5 µM.

Molecule `CCOC(=O)c1sc2nc(SC)nc3c2c1N=CN3c1ccc(Br)cc1` returned a TGI of more than 100 µM.

As for `CC(C)(C)OC(=O)NC(Cc1ccccc1)C(=O)OCN1C(=O)C2C3C=CC(C2C1=O)C1C2C(=O)N(COC(=O)C(Cc4ccccc4)NC(=O)OC(C)(C)C)C(=O)C2C31` (configuration not stated), the TGI is more than 100 µM.

The molecule `CSC1=Nc2ccccc2N(C)c2c1c(-c1ccccc1)nn2C` had a TGI of more than 100 µM.

In the case of `CCOC(=O)c1c(NC(=O)c2ccccc2)sc2c1CCCC2`, the TGI was more than 100 µM.

For the molecule `CCOP(=O)(OCC)[C@H](O)c1ccsc1`, the TGI is more than 100 µM.

`CC(=O)C(CN1CCCCC1)C(c1ccccc1)c1c(O)c2ccccc2oc1=O` (configuration not stated) came in with a TGI of more than 100 µM.

As for `Cc1ccn2c3c(c(C(=O)O)c2c1)C(=O)c1ccccc1C3=O`, the GI50 is 1.73 µM and the TGI came out at 4.25 µM.

On to `COc1cc(/C=C\[N+](=O)[O-])ccc1O`, for which the GI50 is 5.67 µM and the TGI came out at 19.2 µM.

`CC(C)=CCN1CC(C)C(=O)Nc2cc(Cl)ccc21` (configuration not stated) returned a TGI of 81.5 µM.

`COc1ccc(N2C(=O)C3c4[nH]c5ccc([N+](=O)[O-])cc5c4C4CCC(C(C)(C)C)CC4C3C2=O)cc1` (configuration not stated) returned a TGI of more than 100 µM.

The molecule `O=C1NC2(CCCC2)C(=O)C12CCCC2` gave a TGI of more than 100 µM.

For the molecule `c1ccc([P+](CCNCCNCC[P+](c2ccccc2)(c2ccccc2)c2ccccc2)(c2ccccc2)c2ccccc2)cc1`, the TGI is more than 100 µM.

For `CSc1nc(SC)c2c(CN=[N+]=[N-])c(Br)n(Cc3ccccc3)c2n1`, the TGI is more than 100 µM.

For the molecule `Cc1nn(-c2ccc(F)cc2)c2ncnc(Nc3ccc(NC(=O)Nc4ccc(Cl)c(C(F)(F)F)c4)cc3)c12`, the GI50 is 2.64 µM and the TGI was found to be 13.3 µM.

For the molecule `O=C(CSc1nc2ccc([N+](=O)[O-])cc2[nH]1)Nc1ccc(F)c(Cl)c1`, the GI50 is 2.66 µM and the TGI stood at 11 µM.

With `CCn1c(-c2nonc2N)nc2c(C#CCN)ncc(OCCCN)c21`, the GI50 is more than 25 µM and the TGI was more than 25 µM.

Consider `Cc1cc2c(cc1C)[n+](=O)c(C(=O)C/C(=N/NC(=O)c1ccccc1O)C(=O)Nc1ccccc1C(C)C)c(C)n2[O-]`, for which the TGI was more than 100 µM.

As for `O=C(c1cccs1)c1c(C(F)(F)F)n([O-])c2ccccc2[n+]1=O`, the GI50 was 9.06 µM and the TGI was 16.2 µM.

`CN=C(N)N/N=C(\c1ccccc1)c1ccc(Br)cc1`: the GI50 was 0.626 µM and the TGI was 11.9 µM.

The molecule `COC(=O)C(=O)CC(=O)CCn1ncc(Cl)c(Cl)c1=O` had a TGI of 29.9 µM.

For `CSC1=NC=CCN1C`, the TGI is more than 100 µM.

Take `CC(=O)OCC1OC(O[C@@H]2C[C@H]3C(C)(C)[C@H](OC(C)=O)CC[C@]3(C)[C@H]3CCC4=C([C@@H](C)C[C@@H](O)[C@H](O)C(C)(C)O)CC[C@@]4(C)[C@@]32C)C(O)C(O)C1O` (some centres not stated): the GI50 is 17.5 µM and the TGI stood at 31.3 µM.

For the molecule `O=c1cc(-c2cccc(F)c2)[nH]c2cc3c(cc12)OCO3`, the GI50 is 0.608 µM; the TGI was 75 µM and > 100 µM.

On to `NC(CO)Cc1cnc[nH]1` (configuration not stated), for which the GI50 was more than 100 µM and the TGI was more than 100 µM.

As for `O=C1/C(=C/c2ccc(F)cc2)CCOc2ccc([N+](=O)[O-])cc21`, the GI50 is 21.7 µM and the TGI was determined as 41.1 µM.

The molecule `COc1ncc(C=C(C#N)C#N)c(OC)n1` had a TGI of more than 100 µM.
